# From PubChem BioAssay AID485364 (National Center for Advancing Translational Sciences (NCATS), 2010)
# Hit rate of the full screen: of about 360,000 compounds, about 11,000 (3.1%) were called active. The shares of active, inactive and inconclusive entries below differ from those in the screen. The call rests on the fitted dose curve; in most records, active means well fitted inhibition curve with a large enough effect; inconclusive means small, poorly fitted or top-dose-only effect; inactive means no such curve, though single readings can be large or run the other way. No potency is given beside an inconclusive call; the fits are too rough.
# Target: Schistosoma mansoni thioredoxin glutathione reductase (TGR) (UniProt Q962Y6)
# Experiment: qHTS Assay for the Inhibitors of Schistosoma Mansoni Peroxiredoxins; further: nearly all actives have a fitted effect of over 60% in size
# Settings: purified TGR, DTNB reduction, TNB absorbance 405 nm; activity change, negative = inhibition: at 114 µM (top of the series) unless noted
# Outline: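 Kinetic colorimetric format: TGR-catalysed, NADPH-driven DTNB reduction monitored via TNB absorbance. Enzyme dispensed at 20 nM; compound exposure 15 min at room temperature before reaction start.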
# On the % scale 0 is the no-effect control and ±100 the full control effect; potency means the concentration at half of the fitted maximal effect; tags describe the fitted curve by direction and shape.
Structure (SMILES),"activity change, negative = inhibition",Potency
c1ccc(-c2ccc(CN3CCN(c4ncccn4)CC3)cc2)cc1,inactive: 3.87%,–
CC(C)Oc1ccc(/C(O)=C2/C(=O)C(=O)N(CCN3CCNCC3)C2c2cccc([N+](=O)[O-])c2)cc1 (stereo not given),–,"inconclusive [inhibitor, partial curve]"
CC(=O)c1cccc(NC(=O)CCCN2C(=O)COc3ccc(C)cc32)c1,–,"inconclusive [inhibitor, partial curve]"
COCCCn1c(SCc2cc(=O)[nH]c3ccccc23)nnc1-c1ccco1,–,"inconclusive [inhibitor, partial curve]"
NC1CCc2cc(O)c(O)cc2C1 (stereo not given),–,active: 44.7 µM
C/C=C\C=C/C(=O)Nc1cccc(C2=NOC3(C2)C[C@@H](C(N)=O)N(C(=O)CCCCC)C3)c1 (stereo not given in full),–,active: 2.51 µM
CC1CCCCN1C(=O)CCS(=O)(=O)c1cccc2nonc12 (stereo not given),–,"inconclusive [inhibitor, partial curve]"
Cc1n[nH]c(C)c1Sc1ccccc1N=Cc1cc(Cl)cc([N+](=O)[O-])c1O,inactive: -8.06%,–
CC(C)COCC1CC2(CC(C)(c3csc(N)n3)OC2=O)C(=O)O1 (stereo not given),–,"inconclusive [inhibitor, partial curve]"
O=C1CCC/C(=N/NC(=O)C2CCN(S(=O)(=O)c3cccs3)CC2)C1,–,"inconclusive [inhibitor, partial curve]"
CC(=O)Nc1ccc(-n2cnnn2)cc1,inactive: -26.7%,–
O=C(c1ccco1)N1CCN(CC(O)COc2ccc(Br)cc2)CC1 (stereo not given),–,active: 44.7 µM
CC1=CC(C)(C)N(C(=O)Nc2ccccc2)c2ccccc21,–,"inconclusive [inhibitor, partial curve]"
O=C(C1CCCN(S(=O)(=O)c2cccc3nonc23)C1)N1CCN(c2cccc(Cl)c2)CC1 (stereo not given),–,inactive
COc1cc2c(cc1OC)C(COc1ccccc1OC)N(C(=O)c1ccco1)CC2 (stereo not given),–,"inconclusive [inhibitor, partial curve]"
Cc1ccc(N2C(=O)[C@@H]3C(c4cccnc4)=NO[C@@H]3C2=O)c(C)c1,–,"inconclusive [inhibitor, partial curve]"
Cc1ccccc1NC(=S)NC(NC(=O)c1ccco1)C(Cl)(Cl)Cl (stereo not given),–,"inconclusive [inhibitor, partial curve]"
CCCCCCN(C(=O)CCCCCN1C(=O)NC(c2ccccc2)C(C(=O)OCc2ccccc2)=C1C)C(C(=O)NCCCC)c1ccc(OCC(=O)OC)c(C(=O)OC)c1 (stereo not given),inactive: 0.0352%,–
COc1ccc(NC(=O)OCC(C)C)cc1OC,–,"inconclusive [inhibitor, single point]"
C#CCOc1ccc(/C=C2/C(=O)ON=C2C)cc1OCC,–,"inconclusive [inhibitor, partial curve, poor fit]"
Cc1nn(C(=O)COc2ccccc2Br)c(C)c1Sc1ccccc1,inactive: -0.204%,–
CCOc1ccccc1Nc1ccc2nonc2c1[N+](=O)[O-],–,"inconclusive [inhibitor, partial curve]"
Cc1ccccc1C(=O)NC(=S)Nc1ccc2[nH]c(=O)[nH]c2c1,–,"inconclusive [inhibitor, partial curve]"
COc1ccc(CCC(=O)N2CCN(S(=O)(=O)c3cccc(Cl)c3)CC2)cc1,–,"inconclusive [inhibitor, partial curve]"

Structure (SMILES),"activity change, negative = inhibition",Potency
Cc1ccc(S(=O)(=O)c2c(Nc3cc(C)ccc3C)sc(C(=O)c3ccc4c(c3)OCO4)c2N)cc1,inactive: -16.1%,–
C[C@H](c1ccccc1)n1nnc(COCc2ccccc2)c1C#CCOCc1ccccc1,–,"inconclusive [inhibitor, full curve]"
CN(C)S(=O)(=O)c1ccc(C(=O)N2CC(=O)Nc3ccc(F)cc3C2c2ccc(F)cc2)cc1 (stereo not given),–,"inconclusive [inhibitor, single point]"
CCOc1ccc(Cl)cc1CN1CCOCC1,inactive: 17%,–
CCCNC(=O)c1ccc(-c2nc(CS(=O)(=O)c3ccc(C)cc3)c(C)o2)cc1,–,active: 39.8 µM
c1ccc(CCCCNCC2COc3ccccc3O2)cc1 (stereo not given),–,"inconclusive [inhibitor, partial curve]"
Cn1c(=O)n(C)c2cc([N+](=O)[O-])c(N3CCN(S(=O)(=O)c4ccc5ccccc5c4)CC3)cc21,inactive: 0.462%,–
COCC1CCN(C(=O)CC2C(=O)NCCN2Cc2cccc(Oc3ccccc3)c2)CC1 (stereo not given),–,"inconclusive [inhibitor, partial curve]"
CC(=O)NC(Cc1ccccc1)C(=O)NC(Cc1ccccc1)C(=O)O (stereo not given),–,"inconclusive [inhibitor, partial curve]"
COc1ccc(C(=O)N(Cc2ccco2)C(C(=O)NC2CCCC2)c2ccc(O)cc2)cc1OC (stereo not given),–,"inconclusive [inhibitor, partial curve, poor fit]"
COc1cccc(-c2noc(N)c2C#N)c1,–,"inconclusive [inhibitor, partial curve]"
COC(=O)c1ccc(C(c2c(N)n(CC(C)C)c(=O)[nH]c2=O)N2CCN(c3ccccc3)CC2)cc1 (stereo not given),–,"inconclusive [inhibitor, partial curve]"
COc1ccc(OCc2cc(C(=O)N[C@H]3CCCCNC3=O)no2)c(Cl)c1,inactive: -22.4%,–
Brc1ccc(C2=CC(c3cccs3)n3ncnc3N2)cc1 (stereo not given),–,active: 22.4 µM
CN1CCN(/N=C/c2nc(-c3ccc(Cl)cc3)n3ccccc23)CC1,–,"inconclusive [inhibitor, partial curve]"
Cc1ccc(C2C(C#N)=C(N)Oc3cc(C)oc(=O)c32)o1 (stereo not given),–,"inconclusive [inhibitor, partial curve]"
C=CCN(CC=C)c1nc2ccccc2nc1C(C#N)C(=O)OCCOC (stereo not given),–,"inconclusive [inhibitor, partial curve]"
CO/N=C/NC(=O)NOCc1ccc(Cl)cc1Cl,inactive: -3.24%,–
O=C1CC(=O)N(c2cccc(F)c2)C(=O)N1,–,"inconclusive [inhibitor, full curve, poor fit]"
Cc1ccc(NC(=O)C2CCN(S(=O)(=O)c3ccc4c(c3)OCCO4)CC2)c(O)c1,inactive: -4.95%,–
Cc1cc(C)nc(NC(=O)Cc2ccc(Cl)cc2)c1,–,"inconclusive [inhibitor, partial curve]"
CCCn1cc(SCC(=O)NCc2ccco2)c2ccccc21,–,"inconclusive [inhibitor, partial curve]"
Clc1ccc2nc(-c3ccccc3)c(CN3CCOCC3)n2c1,inactive: -2.86%,–
O=C1NCC(c2ccccc2)C1C(=O)N/N=C/c1ccc(Cl)s1 (stereo not given),–,"inconclusive [inhibitor, partial curve]"

Structure (SMILES),"activity change, negative = inhibition",Potency
C/C=C/C1=CC(=O)C[C@H](c2ccc(F)cc2)C1,–,"inconclusive [inhibitor, partial curve]"
CN(C)CCC=C1c2ccccc2CCc2ccccc21,–,active: 7.08 µM
Cn1c(=O)c2c(nc(Br)n2Cc2nnc(N)s2)n(C)c1=O,–,"inconclusive [inhibitor, partial curve]"
COc1ccccc1N1C(=O)C2C(C(=O)c3ccccc3)=NN(c3ccccc3OC)C2C1=O (stereo not given),–,"inconclusive [inhibitor, partial curve]"
COc1ccc(CC(=O)NCC2CCCN(Cc3ccc(OC(F)(F)F)cc3)C2)cc1 (stereo not given),inactive: -8.28%,–
CCc1cccc(NC(=O)CCS(=O)(=O)c2cccc3nonc23)c1,–,"inconclusive [inhibitor, partial curve]"
O=C(NC(=S)NC1CCCc2ccccc21)c1ccco1 (stereo not given),–,"inconclusive [inhibitor, partial curve]"
CC(=O)Nc1ccc(NC(=O)CSc2nccn2Cc2ccco2)cc1,inactive: 0.301%,–
CCSc1nnc(NC(=O)CSc2nnc(Cc3cccn3C)n2-c2ccc(C)cc2)s1,–,"inconclusive [inhibitor, partial curve]"
Cc1ccc2c(C)nc(Nc3nc(CSc4nc5ccccc5[nH]4)cc(=O)[nH]3)nc2c1,inactive: 4.15%,–
Nc1nonc1-n1nnc(C(=O)N/N=C/c2cccs2)c1-c1ccc2c(c1)OCO2,inactive: 1.7%,–
COc1ccc(-n2c(Cc3cccn3C)nnc2SCC(=O)NCC2CCCO2)cc1 (stereo not given),–,"inconclusive [inhibitor, partial curve]"
CCc1ccccc1OCC(=O)Nc1cccc(S(=O)(=O)NCc2ccco2)c1,–,"inconclusive [inhibitor, partial curve]"
Cc1ccnc(SCc2cc(=O)c(OC(=O)c3ccc(Br)o3)co2)n1,–,"inconclusive [inhibitor, full curve, poor fit]"
Cc1ccccc1C(=O)Nc1ccc(OCc2cc(=O)n3ccccc3n2)cc1,inactive: 1%,–
COc1ccc(C(=O)N/N=C(\C)CC(=O)Nc2ccc(Cl)cn2)cc1,–,"inconclusive [inhibitor, full curve]"
CCN(CC)CCOc1ccc(Br)cc1,inactive: -6.32%,–
OCCCNC(=S)Nc1ccc(Oc2ccccc2)cc1,–,"inconclusive [inhibitor, partial curve]"
O=c1[nH]c(=S)n(-c2cccc(Cl)c2)c(O)c1C=NCCN1CCNCC1,–,"inconclusive [inhibitor, full curve]"
Cc1ccsc1CN(C)C(=O)C1CCC(=O)N(CCc2cccc(F)c2)C1 (stereo not given),inactive: -22.5%,–
COc1ccc(C(=O)NCc2oc(-c3ccccc3)cc2C(=O)O)cc1,–,"inconclusive [inhibitor, full curve]"
CCn1c(SCC(=O)N/N=C/C(C)=C/c2ccco2)nnc1-c1ccccc1,–,"inconclusive [inhibitor, partial curve]"
